Measurements as given in patent publication US20240002435A1, “SYNTHETIC PEPTIDE AND APPLICATION THEREOF” (Wuhan Innerse Pharmaceutical Inc., priority 2021, published 2024).
Where no end group is shown, it is not given here.

Assay: Dose-effect experiment, body weight of MCAO model animals (Example 10)
Description: The establishment of rat model: the rats were placed in an anesthesia induction box filled with 3.0% isoflurane for anesthesia induction. Anesthesia-induced animals were transferred to the operating table, and anesthesia was maintained with 2.0%˜2.5% isoflurane at 200 mL/min using a small-animal gas anesthesia machine, and the eyelid reflex and pain response of the rats were observed. The surgery can be started only after the eyelid reflex response and the pain response on limbs and tail disappeared. • A. Isolating and exposing blood vessels: the skin of the surgical area was shaved, and the rat was placed under a surgical microscope. The skin of the rat was cut along the midline with ophthalmic scissors, with a cut of about 2 cm length. […]
Animals measured: all the surviving experimental animals planned to be measured;
Measurement time: the body weight was measured at least twice during the accommodation, and each batch of rats were weighed once on the day before the surgery and on the day of dissection to calculate the amount of drug administered and the anesthetic applied; the body weight was measured twice a week after the surgery. […]

## YGRKKRRQRRRKLSSIESDV [S1, Nerinetide]
3 mg/kg i.v., D 0 body weight − D 2 body weight, mean ± SD
  Weight Loss: 48.22 ± 8.23 g
MCAO rats, 1 day after surgery, vs model control group
  Influence on rat's body weight: no significant influence on rat's body weight
